Reference: the supplement of paper PMC4723716
In all, about 3,600 compounds were measured (“viability index relative to DMSO control”: median about 0.81, lowest 2% from about 0.13 on). The list shows a part of the results.

Test system: Plasmodium falciparum NF54 stage V gametocytes
Assay: viability index relative to DMSO control (fraction); higher = less gametocyte killing
Conditions: 1.25 µM, incubation time: 72 h
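Further: 384-well serum-free SaLSSA: MitoTracker Red CMXRos staining with saponin lysis, high-content imaging, treated-well particle count divided by plate-mean count of DMSO wells.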

| SMILES | viability index |
| --- | --- |
| CCN(CC)CCCNC(=S)N(CCN(CC)CC)Cc1cc2ccc(C)c(C)c2[nH]c1=O | 0.842 |
| CCCOC(=O)C1=C(C)NC2=C(C(=O)CC(c3ccc(OC)c(OC)c3)C2)C1c1ccc([N+](=O)[O-])cc1 (stereo unspecified) | 0.514 |
| CC1CC(C)CN(c2ccc([N+](=O)[O-])cc2-c2nnn[nH]2)C1 (stereo unspecified) | 0.824 |
| COc1ccc(-c2nc(NC(=O)CS(=O)(=O)c3ccc(F)cc3)sc2C)cc1 | 0.587 |
| CC(C)(C)c1ccc(C=CC(=O)NCc2ccco2)cc1 | 0.816 |
| CCN(CC)S(=O)(=O)c1ccc(C(=O)c2c(C)c(C(=O)C(F)(F)F)c3ccccn23)cc1 | 0.871 |
| O=C(Nc1ccccc1O)c1ccc(C(=O)N(C2CCCCC2)C2CCCCC2)cc1 | 0.825 |
| CCOc1cccc2c(C)nc(NC(=N)N)nc12 | 0.83 |
| Cc1ccc(NC(=O)C(C)Sc2nnc(-c3ccc(O)cc3)o2)cc1 (stereo unspecified) | 0.753 |
| N#Cc1cc(Oc2ccc(-c3cnc4ccccc4n3)cc2)nc2ccccc12 | 1.2 |
| COc1ccc(-c2c[n+](Cc3ccc(Cl)cc3Cl)c3n2CCC3)cc1 | 0.755 |
| CC(=O)Nc1cccc(NC(=O)C(F)(F)F)c1 | 0.906 |
| CCN(CC)Cc1cc(Nc2ccnc3cc(Cl)ccc23)ccc1O | 0.873 |
| Cc1ccc(N2C3c4ccccc4N(S(=O)(=O)c4ccc(C)cc4)C2c2ccccc2N3S(=O)(=O)c2ccc(C)cc2)cc1 | 0.645 |
| COc1ccc(Nc2nc(NN=Cc3cccc(Cl)c3)nc(Nc3ccc([N+](=O)[O-])cc3)n2)cc1 | 0.498 |
| Cc1ccc(CN2C(=O)C(O)(CC(=O)c3ccccc3)c3ccccc32)cc1 (stereo unspecified) | 0.914 |
| Cc1cc2c(cc1C)-c1c(ssc1=Nc1cccc(C)c1C)C(C)(C)N2 | 0.77 |
| CCOC(=O)c1ccc(NC(=O)c2ccc(S(=O)(=O)N3CC(C)CC(C)C3)cc2)cc1 (stereo unspecified) | 1 |
| CCOC(=O)CSc1nc2c(sc(=S)n2-c2ccc(Cl)c(C)c2)c(=O)n1-c1ccccc1OC | 0.932 |
| O=C(CSc1nc2ccccc2[nH]1)Nc1ccc(Cl)cc1Cl | 0.71 |
| CCc1c(C)c(C#N)c2nc3ccccc3n2c1NCc1ccco1 | 0.46 |
| COc1cc(Br)c(/C=C2\Sc3ccccc3C2=O)cc1OC | 0.837 |
| CCCCNc1c2c(c(C#N)c3nc4ccccc4n13)CCC2 | 0.624 |

| SMILES | viability index |
| --- | --- |
| Cc1cccc(C)c1NC(=O)N1CCN(C2CCCCC2)CC1 | 1.07 |
| CC(=O)N(C1=C(N2CCOCC2)C(=O)c2ccccc2C1=O)c1ccc(F)c(F)c1 | 0.0694 |
| CCCCCCCn1c2c(c(=N)c3ccccc31)CCC2 | 0.477 |
| CCCCCCCC(=O)N1CCN(CCN(Cc2ccc(F)cc2)C(=O)c2c(-c3c(F)cccc3Cl)noc2C)CC1 | 0.786 |
| O=C1C=CC(=O)N1c1ccc(Sc2ccc(N3C(=O)C=CC3=O)cc2)cc1 | 0.868 |
| COc1ccc2nc(C)cc(Nc3cccc(Cl)c3)c2c1 | 0.958 |
| CCOC(=O)c1c(NC(=O)c2ccc(S(=O)(=O)N(C)c3ccccc3)cc2)sc2c1CCN(C(=O)OCC)C2 | 0.81 |
| CCN1C(=O)N(CCC(C)C)C2(CCN(Cc3cc(Cl)ccc3O)CC2)C1=O | 1.14 |
| COc1cccc(NC(=O)c2ccc(NCCCN3CC(C)CC(C)C3)c([N+](=O)[O-])c2)c1 (stereo unspecified) | 1.15 |
| CN(C)CCN1CCN(c2ccnc3cc4ccccc4cc23)CC1 | 0.84 |
| COc1ccc2[nH]c3c(=O)n(C)cnc3c2c1 | 0.735 |
| CCN(CC)S(=O)(=O)c1ccc(-c2csc(Nc3ccc(C)c(C)c3)n2)cc1 | 0.427 |
| COC(=O)c1ccc(N(C(=O)Cc2c[nH]c3ccccc23)C(C(=O)NC2CCCCC2)c2cccnc2)cc1 (stereo unspecified) | 0.771 |
| COc1ccccc1CNC(=O)CN1C(=O)c2cccnc2Oc2ccccc21 | 0.831 |
| Oc1ccc(Cl)cc1C1CC(c2ccc(Cl)cc2)=NC(c2ccc(Cl)cc2)N1 (stereo unspecified) | 1.06 |
| OC(CCN1CCN(C(c2ccccc2)c2ccccc2)CC1)c1ccccc1 (stereo unspecified) | 0.857 |
| CC12CN3CC(C)(CN(C1)C3c1ccccc1)C2=O (stereo unspecified) | 0.83 |
| CCCn1cc(SCC(=O)NCc2ccco2)c2ccccc21 | 1.34 |
| CCOc1ccc(NC(=O)c2ccc(C)o2)cc1 | 0.873 |
| C(=NNc1nc2ccccc2[nH]1)c1c[nH]c2ccccc12 | 0.558 |
| COc1ccc(C2=C(Nc3ccc4oc5ccccc5c4c3)c3ccccc3C2=O)cc1 | 0.672 |
| CC(C)CN1C(=O)c2ccccc2C(C(=O)Nc2cccc(Cl)c2)C1c1cccs1 (stereo unspecified) | 0.209 |
| Cc1cc(C)cc(NC(=O)CCCn2c3ccccc3c(=O)c3cc(C)ccc32)c1 | 0.788 |

| SMILES | viability index |
| --- | --- |
| N#Cc1c2c(c(N3CCN(c4ccccn4)CC3)n3c1nc1ccccc13)CCC2 | 1.16 |
| N#CN=C(N)c1sc(Nc2ccccc2)nc1N | 0.721 |
| COC(=O)C1N(C(=O)OC)c2ccc([N+](=O)[O-])cc2S1(=O)=O (stereo unspecified) | 0.625 |
| CC(Oc1cccc(Cl)c1)C(=O)N1CCc2ccccc21 (stereo unspecified) | 0.845 |
| Cc1cnc(Sc2ccccn2)c([N+](=O)[O-])c1 | 1.07 |
| CC1=C(CCN(CCCN(C)C)CCCN(C)C)C(C)(C)CCC1 | 0.405 |
| O=C1C2=C(Nc3ccccc3SC2c2ccc(OCc3ccccc3)cc2)c2ccccc21 (stereo unspecified) | 0.653 |
| Cc1ncc([N+](=O)[O-])n1CCOC(=O)c1c(NC(=O)c2ccccc2)sc2c1CCCC2 | 0.863 |
| CCc1cc2c(Sc3nnc(N)s3)ncnc2s1 | 0.777 |
| FC(F)(F)c1cccc(NC(=S)N2CCSC2c2ccc(Br)cc2)c1 (stereo unspecified) | 0.398 |
| CCN(CC)CCCNCC(=O)N1c2ccccc2Sc2ccccc21 | 0.87 |
| CCCCCNC(=O)C1CSC(c2ccoc2)N1C(=O)c1ccccc1Cl (stereo unspecified) | 0.696 |
| O=C(Nc1ccc(-c2cn3ccsc3n2)cc1)c1ccc(S(=O)(=O)N2CCCCCC2)cc1 | 0.804 |
| O=C(Nc1ccc(C(F)(F)F)cc1)c1ccc(NCCCN2CCCCCC2)c([N+](=O)[O-])c1 | 0.917 |
| CCC(=O)NCc1nc2ccccc2n1Cc1ccc(C)cc1 | 0.956 |
| CCOC(=O)C1=C(N)n2c(sc(=Cc3cccnc3)c2=O)=C(C(=O)OC)C1c1cccnc1 (stereo unspecified) | 1.29 |
| Cc1ccccc1Nc1nc(NCc2ccco2)c2ccccc2n1 | 0.601 |
| COc1cc(OC)cc(C(=O)N2CCC(C(=O)Nc3cccc4ccccc34)CC2)c1 | 0.942 |
| Cn1ccnc1C1CCCCN1C(=O)c1cc(COc2ccc(F)cc2Cl)on1 (stereo unspecified) | 0.962 |
| COc1ccccc1Nc1nc(NCC2CCCO2)c2ccccc2n1 (stereo unspecified) | 0.62 |
| C#CC[N+]1(CC#Cc2cccc3ccccc23)CCCCC1 | 0.864 |
| CC1(C)C2CCC1(C)C(NCc1ccccc1O)C2 (stereo unspecified) | 0.479 |
| CC1=C(CC(=O)c2ccccc2)C(=O)c2ccccc2C1=O | 0.644 |

| SMILES | viability index |
| --- | --- |
| O=C1CN(C(=O)CCC2CCCCC2)C(c2ccccc2)c2cc(F)ccc2N1 (stereo unspecified) | 1.12 |
| CCOC(=O)C1=C(C)NC2=C(C(=O)CC(C)(C)C2)C1c1ccc(Cl)cc1Cl (stereo unspecified) | 0.826 |
| CCN(CC)CCNC(=O)C1c2ccccc2C(=O)N(Cc2ccc(F)cc2)C1c1ccc(OC)cc1 (stereo unspecified) | 0.791 |
| CCOC(=O)c1cc(S(=O)(=O)NCc2ccc(F)cc2)n[nH]1 | 1.19 |
| O=C(O)CCNc1ccccc1[N+](=O)[O-] | 0.971 |
| O=[N+]([O-])c1cc(NC2OC(CO)C(OC3OC(CO)C(O)C(O)C3O)C(O)C2O)ccc1Cl (stereo unspecified) | 0.692 |
| CCCCNC(=O)C(CC)Sc1nnc(-c2ccc(C)cc2)c(-c2ccc(C)cc2)n1 (stereo unspecified) | 0.884 |
| CSc1nc2sc3c(c2c(=O)n1-c1ccccc1)CCN(CCc1ccccc1)C3 | 0.646 |
| CCOC(=O)COc1ccc(C2NC(=S)NC(C)=C2C(C)=O)cc1OC (stereo unspecified) | 0.885 |
| CCCCN(C(=O)c1ccccc1C)c1nc(-c2cc(OC)ccc2OC)cs1 | 0.624 |
| CCN(CC)c1ccc2cc(C(C)=NNC(N)=S)c(=O)oc2c1 | 0.656 |
| CCn1c(SCC(=O)N(c2ccccc2)c2ccccc2)nc2sc3c(c2c1=O)CCN(C)C3 | 0.946 |
| CCN(CC)CCNc1nc(C=Cc2ccc(Cl)cc2)nc2cc3ccccc3cc12 | 0.453 |
| COc1cccc(NCC(O)Cn2c3ccc(Cl)cc3c3cc(Cl)ccc32)c1 (stereo unspecified) | 0.898 |
| Cc1ccc(C(=O)Nc2ccc(-c3nc4cc5ccccc5cc4[nH]3)cc2)cc1[N+](=O)[O-] | 0.735 |
| CC(NS(=O)(=O)c1ccccc1)C(=O)NC1CCCC1 (stereo unspecified) | 1.12 |
| Nc1ccc(-c2nc3cc(Cc4ccc5[nH]c(-c6ccc(N)cc6)nc5c4)ccc3[nH]2)cc1 | 0.192 |
| CC1CC(=Cc2ccncc2)C(=O)C(=Cc2ccncc2)C1 (stereo unspecified) | 0.373 |
| COC(=O)C1=C(C)NC2=C(C(=O)CC(c3ccc(OC)cc3)C2)C1c1ccccc1F (stereo unspecified) | 0.627 |
| COCCNC(=O)c1ccc2c(=O)n(Cc3ccc4c(c3)OCO4)c(=S)[nH]c2c1 | 0.455 |
| CCN1CCN(CC(O)COc2ccc(OC)cc2)CC1 (stereo unspecified) | 0.798 |
| Cc1ccc(CNC(=O)c2cc(=O)[nH]c3ccc(S(=O)(=O)N4CCOCC4)cc23)cc1 | 0.831 |
